This note sets out measurements from paper PMC12040169 (PLOS Biology, 2025).

SMILES strings stand for the structures. Some of the results follow. Peptide text beside a SMILES is read from it. * marks the point of attachment. Bz = O=C(c1ccccc1)*

The test system of this experiment is T1, C. trachomatis L2/434/Bu expressing GFP (CTL2-GFP).
T1 construct: L2/434/Bu GFP intracellular growth in HeLa cells
Also on record: species or system HeLa; C. trachomatis total inclusion area by high-content imaging, normalised to DMSO. To be noted: total inclusion area; 28.5 h, 10 µM; inhibitor. The procedure, abridged:
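Bulk GFP and resorufin signals were read first. Wells were then fixed, stained with Hoechst and imaged to detect GFP inclusions and host nuclei. MICs followed the previously described calculation.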
With `Cc1ccc2ccccc2c1CN(/N=N/c1nonc1C)c1nonc1C` [CBK262412], the “% of control remaining” value is listed as 99.7355. Turning to `CC(=O)c1cc(C(=O)N2CCC(O)(c3ccccc3C)CC2)cs1` [CBK282532], the “% of control remaining” value was 82.0961.

Take `CCOC(=O)c1c(NC(=O)c2cc(-c3ccc(C)c(C)c3)nc3ccccc23)sc2c1CCC(C)C2` (centres unmarked) [CBK262627]: the “% of control remaining” value was determined as 90.3902. The same measure for `CCn1cnc2c1CC/C(=N\O)C2` [CBK010044]: 31.2871; for `CC(=O)N[C@H]1CC[C@]2(C)CCC([C@H](C)C(=O)NC3CCCC3)[C@H](O)[C@H]2[C@@H]1C` (some centres unmarked) [CBK289436]: 113.285.

For the compound `CN(C)c1ccccc1-c1cc(Nc2ccc(C(C)(C)C)cc2)ncn1` [CBK090872], the “% of control remaining” value is recorded as 89.1436.

For the compound `CC(=O)C1=C(C)N2C(=Nc3ccccc3C2(C)C)S1` [CBK010180C], the “% of control remaining” value turned out to be 59.4233.

Regarding `CCOc1ccc(NC(=O)c2c[nH]c(=O)n(-c3ccc(F)cc3)c2=O)cc1` [CBK287553], the “% of control remaining” value amounted to 104.252. Regarding `CC(C)(N)C(=O)N1CC(C(=O)NCCN(Cc2ccccc2)S(C)(=O)=O)C(c2ccccc2)C1` (centres unmarked) [CBK014706T], the “% of control remaining” value amounted to 83.1754. Turning to `CC(C)(C)c1ccc(C(=O)CSCC(=O)Nc2ccc3ccccc3c2)cc1` [CBK268394], the “% of control remaining” value is reported as 94.6254. Consider `c1csc(-c2cn3ccnc3c(NCC3CC3)n2)c1` [CBK066754], for which the “% of control remaining” value was 146.943. For `Nc1ncc(-c2ccc(C(F)(F)F)cc2)nc1-c1ccc(C(=O)N2CCOCC2)cc1` [CBK090524], the “% of control remaining” value turned out to be 97.7243. On to `c1ccc(CNc2cccc(N3CCNCC3)n2)cc1` [CBK003176T], for which the “% of control remaining” value was determined as 73.579. Turning to `O=C(CN1C(=O)c2ccccc2C1=O)Nc1ccc(S(=O)(=O)N2CCCCCC2)cc1` [CBK266693], the “% of control remaining” value worked out at 92.0589.

For the compound `O=C(c1ccc(SCc2cccnc2)c([N+](=O)[O-])c1)N1CCCCC1` [CBK294452], the “% of control remaining” value was determined as 38.9218. On to `CCS(=O)(=O)N1CC2C3c4ccccc4C(c4ccccc43)C2C1` (centres unmarked) [CBK282328], for which the “% of control remaining” value was found to be 97.0922. The same measure for `O=C1NCCN1CCOc1nccnc1/C=C/c1ccccc1` [CBK106879]: 99.1587.

In the case of `CC(O)CN(Cc1ccc(-n2cnc3ccccc32)cc1)Cc1ccc2c(c1)OCO2` (centres unmarked) [CBK286475], the “% of control remaining” value is 96.2119. For `O=C(O)CCCN1C(=O)/C(=C/c2ccccc2[N+](=O)[O-])SC1=S` [CBK262801], the “% of control remaining” value turned out to be 115.137. The same measure for `CC(C)C(NC(=O)CSc1n[nH]c(=O)n1Cc1ccccc1)c1ccc2c(c1)OCCCO2` (centres unmarked) [CBK297875]: 114.691; for `Cc1cc(N2C[C@H](CO)OC2=O)ccc1C#N` [CBK017978]: 68.845; for `N#Cc1ccc(-n2nc(-c3ccccc3)c3ccccc3c2=O)c([N+](=O)[O-])c1` [CBK132567]: 96.7311. For `C=CCN(Cc1nc(-c2ccccc2)no1)C(=O)Nc1ccc(C)cc1` [CBK269859], the “% of control remaining” value was 78.4189.

`O=C(O)CCC(=O)Nc1cccc(C(=O)Nc2ccc(Br)cc2)c1` [CBK269129]: the “% of control remaining” value was 122.215.

`CC(C)CSc1nccnc1N1CCCC1` [CBK103683]: the “% of control remaining” value was 86.2365.

As to `CC(NC(=O)N1CCC2(CC1)NC(=O)Cc1ccccc12)c1cccc2ccccc12` (centres unmarked) [CBK047280], the “% of control remaining” value is 103.785. On to `COc1ccc(C2(CN3CCC(NC(=O)C(C)C)CC3)CC2)cc1` [CBK285374], for which the “% of control remaining” value is recorded as 107.359.

Turning to `O=C(Nc1cccc(-c2cn3cccnc3n2)c1)c1cccc([N+](=O)[O-])c1` [CBK268963], the “% of control remaining” value was found to be 118.264.

`CCCc1cnc(N2CCN(S(=O)(=O)c3ccc(NC(C)=O)cc3Cl)CC2)nc1` [CBK086208]: the “% of control remaining” value stood at 87.9358.

Take `CSc1ccccc1CNC(=O)c1cc(Br)cnc1N(C)C(C)=O` [CBK076478]: the “% of control remaining” value came out at 85.7541.

`CC1(C)CCCCC1CC(=O)NS(=O)(=O)c1cccc(-c2nnco2)c1` (centres unmarked) [CBK306477]: the “% of control remaining” value worked out at 73.3124. The value for `CCOP(=O)(O)c1c([N+](=O)[O-])cc(C(F)(F)F)cc1[N+](=O)[O-]` [CBK261106G] was 98.9904.

On to `COc1ccc(CCNS(=O)(=O)c2cccc([N+](=O)[O-])c2)cc1OC` [CBK263618], for which the “% of control remaining” value was 94.0165.

Take `Cn1c(CCNC(=O)NC2CCCCC2)nc2cc([N+](=O)[O-])ccc21` [CBK268453]: the “% of control remaining” value is listed as 114.815.

In the case of `Cc1nn(C)c(=O)c2c(C)noc12` [CBK001462], the “% of control remaining” value is 111.351.

As to `Clc1ccccc1-c1nccnc1NCCc1ccncc1` [CBK038055], the “% of control remaining” value turned out to be 163.427. The same measure for `CC(C)(C)C(O)CNc1ncnc2ccc(S(C)(=O)=O)cc12` (centres unmarked) [CBK306494]: 36.0297.

With `Cc1ccc(Cl)cc1N(Cc1ccc(C(=O)N2CCC(C)CC2)cc1)S(=O)(=O)c1ccccc1` [CBK033646], the “% of control remaining” value is listed as 106.069. With `Cn1c(Cc2cccc3ccccc23)nnc1SCC(=O)Nc1ccccc1F` [CBK265856], the “% of control remaining” value worked out at 67.0376.

For `Cc1ccc(OCC(=O)Nc2ncc(C(F)(F)F)cc2Cl)c(Br)c1` [CBK266426], the “% of control remaining” value is listed as 121.609. The same measure for `OCCN(CCO)Cc1c(Cl)cccc1Cl` [CBK261887]: 95.9948; for `COc1ccc2sc(C)[n+](CCC(=O)O)c2c1` [CBK260899B]: 90.7004; for `CCc1cc(=O)[nH]c(-c2ccc(N3CCOCC3C)nc2)n1` (centres unmarked) [CBK305532]: 81.5408. For the compound `CC(C)OC(=O)COc1ccc2c(=O)c(Oc3ccccc3Br)coc2c1` [CBK264226], the “% of control remaining” value amounted to 113.792. The same measure for `Cc1ccc(-c2[nH]ncc2C(=O)c2ccccc2C)c(O)c1` [CBK287929]: 118.265. The same measure for `COc1ccc(-c2n[nH]c(=S)n2CCC(=O)NCc2ccc(CN3CCCCC3)cc2)cc1` [CBK297918]: 91.1288; for `CC(C)c1ccc(/C=C/C(=O)NCc2cccs2)cc1` [CBK149587]: 102.523; for `CN(c1cccc(C#N)c1)C1CCN(c2nccn(C)c2=O)C1` (centres unmarked) [CBK304718]: 33.5345. On to `C[Si]1(C)O[Si](C)(C)O[Si](C)(CC[Si](C)(C)c2ccccc2)O[Si](C)(C)O1` [CBK260998], for which the “% of control remaining” value is listed as 98.9461.

Regarding `COc1ccc(Nc2nc(-c3ccc(Cl)cc3)cn3ccnc23)cn1` [CBK066254], the “% of control remaining” value stood at 94.026.

As to `CCOC(=O)C1CCN(c2cccc(F)c2C#N)CC1` [CBK304558], the “% of control remaining” value was determined as 45.8904.

With `OC(COCc1ccc2c(c1)OCO2)CN1CCN(Cc2ccccc2)CC1` (centres unmarked) [CBK278249C], the “% of control remaining” value is given as 97.284. The same measure for `O=C(NC1CC2CCC(C1)N2Cc1ccccc1)c1ccc(Cl)cc1` (centres unmarked) [CBK120192]: 106.603; for `c1csc(CNCCCN2CCOCC2)c1` [CBK278305C]: 128.164.

For `Cn1cnnc1SCc1nc(N)nc(Nc2ccccc2)n1` [CBK018022], the “% of control remaining” value was found to be 93.171. The same measure for `O=C(CCCOc1ccccc1)Nc1ccc(N2CCNCC2)nc1` [CBK028270T]: 76.121.

Take `COc1cccc([C@H]2CN(C(=O)c3ccccc3)[C@@H]3CCN(Cc4ccccc4F)C[C@H]23)c1` [CBK285608]: the “% of control remaining” value worked out at 86.7457. For `COc1ccc(C2=NNC(=O)c3cc4sccc4n3C2)cc1` [CBK284205], the “% of control remaining” value stood at 67.3666.

`Cc1sc2ncn(CC(=O)NC3CCOc4ccccc43)c(=O)c2c1C` (centres unmarked) [CBK304562]: the “% of control remaining” value was 40.4663. As for `O=c1cc(CN2CCCc3ccccc32)[nH]c(=O)[nH]1` [CBK138331], the “% of control remaining” value is reported as 64.4779.

On to `CC(C)Nc1nccnc1OC1CCNC1` (centres unmarked) [CBK115279], for which the “% of control remaining” value stood at 96.9696. As for `CN1[C@@H](CCC(=O)Nc2ccccc2)CNC(=O)[C@@H]2[C@H]1CCN2C1CCOCC1` [CBK289029], the “% of control remaining” value was 101.373. In the case of `CN(C)CC1CN(C(=O)c2ccccc2F)Cc2ccccc2O1` (centres unmarked) [CBK285188], the “% of control remaining” value stood at 86.2921. The same measure for `CCCC(=O)Nc1ccc(-c2csc(CCN3CCOC3=O)n2)cc1` [CBK305687]: 110.793. The value for `O=C(C1CCCO1)N1CCC(c2onc3c2CCCCC3)CC1` (centres unmarked) [CBK284487] was 67.4358; that for `O=S1(=O)CCN(Cc2cnn(-c3cncnc3)n2)CC1` [CBK112878] was 112.197; that for `C=CCn1c(COc2cccc(Cl)c2)nnc1SCC(=O)O` [CBK269389] was 90.9817. The same measure for `C1=C(CCNCCc2ccccc2)c2ccccc2C12CCCC2` [CBK024723]: 3.156; for `CCc1nc(-c2ccc(N(C)C)nc2)nn1C` [CBK307381]: 36.0012; for `Clc1ccc(Nc2cncc(-c3cccs3)n2)cc1` [CBK065805]: 95.3077. In the case of `CCOc1ccc(C(=O)Nc2ccc(-c3nc4ccccc4s3)cc2C)cc1[N+](=O)[O-]` [CBK269005], the “% of control remaining” value was 89.9708. The same measure for `Cc1cnc2c(N3CCCC3)nc(Cl)cn12` [CBK092250]: 87.6579; for `CCNc1nc2ccccn2c(=O)c1C=C1SC(=S)N(CCCC(=O)O)C1=O` [CBK296757]: 104.864; for `Cc1cccc(C)c1OCC(O)CNCCc1ccccc1` (centres unmarked) [CBK003072]: 80.6179. With `COc1ccc(-c2cc(C(=O)NCC(O)CO)cnc2-c2ccc(Cl)cc2)cn1` (centres unmarked) [CBK036645], the “% of control remaining” value came out at 152.781. The same measure for `C[C@H]1CC[C@H](C(=O)N2CCC[C@H]2C(=O)O)CC1` [CBK028320]: 45.0091. Regarding `CS(=O)(=O)N1CCN(c2ccccc2NC(=O)Cc2ccc(Cl)cc2)CC1` [CBK267605], the “% of control remaining” value is 112.571.

As for `N=C(N)NCCCc1c[nH]c2ccccc12` [CBK012139G], the “% of control remaining” value is given as 58.172. The value for `Cc1cccc(NC(=O)C2CC(=O)NC(Nc3nc4ccccc4s3)=N2)c1` (centres unmarked) [CBK264362] was 96.6574; that for `O=C(NC(Cc1ccccc1)C(=O)N1CCCC1C(=O)O)c1ccccc1` (stereo not drawn) [CBK264058] (Bz-Phe-Pro-OH; configuration not given here) was 99.2343.
